{"source": "PubChem BioAssay AID360", "about": "(National Center for Advancing Translational Sciences (NCATS), 2006)", "note": "Among all 48,000 compounds or so, about 550 (1.1%) were called active. Not shown: some 4% with an inconclusive outcome. Cut-off read from the data, not from the text of the source: active = potency below about 15 µM; inconclusive = mostly about 16 µM to 33 µM; inactive = weaker than that. The list shows a part of the results. Potency is the fitted concentration of half-maximal effect."}
{"target": "Lysosomal acid glucosylceramidase (Homo sapiens) (UniProt P04062)", "sequence (P04062 whole entry, looked up)": "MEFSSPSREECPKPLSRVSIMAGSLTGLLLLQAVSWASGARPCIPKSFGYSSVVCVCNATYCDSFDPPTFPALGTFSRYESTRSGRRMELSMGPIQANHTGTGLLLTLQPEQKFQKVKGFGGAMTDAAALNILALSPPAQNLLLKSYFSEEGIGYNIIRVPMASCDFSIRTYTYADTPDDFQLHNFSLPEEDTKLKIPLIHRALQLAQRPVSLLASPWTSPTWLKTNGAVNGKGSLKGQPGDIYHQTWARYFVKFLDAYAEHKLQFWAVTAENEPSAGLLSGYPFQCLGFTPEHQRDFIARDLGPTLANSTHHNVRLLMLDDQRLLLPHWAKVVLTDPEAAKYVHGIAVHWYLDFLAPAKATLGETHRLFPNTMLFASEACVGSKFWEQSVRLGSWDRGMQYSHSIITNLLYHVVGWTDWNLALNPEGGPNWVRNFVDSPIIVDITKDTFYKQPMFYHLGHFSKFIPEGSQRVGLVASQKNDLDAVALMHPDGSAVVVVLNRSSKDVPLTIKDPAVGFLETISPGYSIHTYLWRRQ", "test": "Glucocerebrosidase;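 note: the screen sought inhibitors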", "conditions": "purified enzyme, resorufin glucoside fluorescence (screen aimed at inhibitors), 20 min; series mostly up to 77 µM", "outline": "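Wild-type enzyme at 0.2 nM final in 50mM citric acid/KH2PO4, 10mM sodium taurocholate, 0.01% tween-20, pH 5.9, with resorufin beta-D-glucopyranoside at 30 uM final. Compounds titrated, 20 min at RT, red fluorescence read; AC50 from titration.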"}
{"smiles": "Cc1cc(NC(=O)CN2CCCC2c2nc3ccccc3s2)no1", "note": "(centres undefined)", "Potency": "inactive: > 76.9 µM"}
{"smiles": "CCOC(=O)N1CCC(NC(=O)c2cc(C(=O)Nc3ccc(OC)c(OC)c3)ccc2CO)CC1", "Potency": "inactive: > 76.9 µM"}
{"smiles": "CCOc1cc(C2C(C(=O)OC(C)C)=C(C)N=C3SCCC(=O)N32)ccc1OC(C)=O", "note": "(centres undefined)", "Potency": "active: 14.5 µM"}
{"smiles": "COCCNC(=O)CC(NS(=O)(=O)c1ccc(C)cc1)c1ccco1", "note": "(centres undefined)", "Potency": "inactive: > 76.9 µM"}
{"smiles": "C=CCNc1nc2ccccc2nc1NS(=O)(=O)c1cccs1", "Potency": "inactive: > 76.9 µM"}
{"smiles": "Brc1cccc(-c2nnc3n2CCC3)c1", "Potency": "inactive: > 76.9 µM"}
{"smiles": "O=C(Nc1nnc(CC(=O)N2CCCC2)s1)c1cnccn1", "Potency": "inactive: > 76.9 µM"}
{"smiles": "Cc1cc(C(=O)CSc2n[nH]c(N)n2)c(C)n1-c1cccc(F)c1", "Potency": "inactive: > 15.4 µM"}
{"smiles": "COc1ccc(N2CCN(C(=O)CN3C(=O)c4ccccc4S3(=O)=O)CC2)cc1", "Potency": "inactive: > 76.9 µM"}
{"smiles": "CCCn1c(=NC(=O)c2ccco2)c(C(=O)OCC)cc2c(=O)n3ccccc3nc21", "Potency": "inactive: > 76.9 µM"}
{"smiles": "CC(C)Sc1nc2c(c(=O)[nH]c(=O)n2C)n1Cc1ccc(Cl)cc1", "Potency": "inactive: > 76.9 µM"}
{"smiles": "CC(=O)c1cccc(NC(=O)c2cc(-c3ccc(C)cc3)on2)c1", "Potency": "inactive: > 76.9 µM"}
{"smiles": "COc1ccc(NC(=O)C(c2ccc(OC)cc2)N(C)C(=O)c2cnccn2)cc1", "note": "(centres undefined)", "Potency": "inactive: > 76.9 µM"}
{"smiles": "CCN(CC)C(=O)COc1ccc(-c2nnc(N3CCCCC3)c3ccccc23)cc1", "Potency": "inactive: > 76.9 µM"}
{"smiles": "COc1ccc(NC(=O)C2CCN(c3cc(C)nc(-c4ccccc4)n3)CC2)cc1", "Potency": "active: 13.2 µM"}
{"smiles": "COc1ccc(N(C(=O)c2cccc(OC)c2OC)C2C=CS(=O)(=O)C2)cc1", "note": "(centres undefined)", "Potency": "inactive"}
{"smiles": "Cc1ccc(/C(O)=C2\\C(=O)C(=O)N(CC(C)O)C2c2ccc(N(C)C)cc2)cc1", "note": "(centres undefined)", "Potency": "inactive: > 76.9 µM"}
{"smiles": "Cc1cc(N2CCN(c3cccc(C(F)(F)F)c3)CC2)n2ncnc2n1", "Potency": "inactive: > 76.9 µM"}
{"smiles": "CCSc1ccccc1C(=O)Nc1cccnc1", "Potency": "inactive: > 76.9 µM"}
{"smiles": "O=C(COc1cccc2cccnc12)Nc1nccs1", "Potency": "inactive: > 76.9 µM"}
{"smiles": "O=C(CCC(=O)N1CCc2ccccc21)Nc1ccccc1", "Potency": "inactive: > 76.9 µM"}
{"smiles": "O=C(NCC(c1cccnc1)N1CCN(c2ccccc2)CC1)OCc1ccccc1", "note": "(centres undefined)", "Potency": "inactive: > 76.9 µM"}
{"smiles": "Cc1cc(C)c(S(=O)(=O)N2CCCCC2)c(C)c1-n1ncnn1", "Potency": "inactive: > 76.9 µM"}
{"smiles": "CC1(C)CC(=O)C2=C(C1)OC(N)=C(C#N)C21CCC2(CC1)OCCO2", "Potency": "inactive: > 76.9 µM"}
{"smiles": "CC1=C(C(=O)OC(C)C)C(c2ccncc2)n2ncnc2N1", "note": "(centres undefined)", "Potency": "inactive: > 76.9 µM"}
{"smiles": "COc1ccc(N(CC(=O)NC2CCCCCC2)S(=O)(=O)c2c(C)nn(C)c2C)cc1", "Potency": "inactive: > 76.9 µM"}
{"smiles": "CCCCC(c1nnnn1Cc1ccco1)N1CCN(c2nc3ccccc3s2)CC1", "note": "(centres undefined)", "Potency": "inactive: > 76.9 µM"}
{"smiles": "CCOC(=O)N1CCN(C(=O)c2ccc3c(=O)n(-c4ccc(OC)cc4)c(=S)[nH]c3c2)CC1", "Potency": "inactive: > 76.9 µM"}
{"smiles": "Cc1nc(NCC2CCCO2)nc2c1C(=O)CC(C)(C)C2", "note": "(centres undefined)", "Potency": "inactive: > 76.9 µM"}
{"smiles": "CCc1nnc(NC(=O)C2CCCN2S(=O)(=O)c2ccc(C)cc2)s1", "note": "(centres undefined)", "Potency": "inactive: > 76.9 µM"}
{"smiles": "Cn1c(=O)[nH]c(=O)c2c1nc(Br)n2CCSc1nc2ccccc2o1", "Potency": "inactive: > 76.9 µM"}
{"smiles": "COc1ccc(C(=O)N2CCN(C3CCC(c4ccccc4)CC3)CC2)cc1OC", "note": "(centres undefined)", "Potency": "inactive: > 76.9 µM"}
{"smiles": "COc1ccc(CCn2c(NCc3ccco3)nc3c2c(=O)[nH]c(=O)n3C)cc1", "Potency": "inactive: > 76.9 µM"}
{"smiles": "N=C1C(c2nc3ccccc3c(=O)[nH]2)=C(O)CN1CCO", "Potency": "inactive: > 76.9 µM"}
{"smiles": "Cc1c(-c2ccccc2)nc(N)c(C#N)c1-c1ccco1", "Potency": "inactive: > 76.9 µM"}
{"smiles": "COc1ccc(N2C(=O)CSC2c2ccc3c(c2)OCO3)c(OC)c1", "note": "(centres undefined)", "Potency": "inactive: > 76.9 µM"}
{"smiles": "C=CCn1cnc2c(c1=O)c1nc3ccccc3nc1n2/N=C/c1cc(OC)c(OC)c(OC)c1", "Potency": "inactive: > 76.9 µM"}
{"smiles": "Cc1cc2occ(CC(=O)O)c2cc1C", "Potency": "inactive: > 76.9 µM"}
{"smiles": "CCN(CC)S(=O)(=O)c1ccc2oc(C(=O)NC(C)C)c(C)c2c1", "Potency": "inactive: > 76.9 µM"}
{"smiles": "COc1ccc(NC(=O)CN(c2ccc(C)cc2)S(=O)(=O)c2c(C)nn(C)c2C)cc1OC", "Potency": "inactive: > 76.9 µM"}
{"smiles": "O=C(O)CCN1C(=O)C2C3C=CC(C3)C2C1=O", "note": "(centres undefined)", "Potency": "inactive: > 76.9 µM"}
{"smiles": "CC(C)C(NC(=O)C1CCCCC1)C(=O)NC1CCN(Cc2ccccc2)CC1", "note": "(centres undefined)", "Potency": "inactive: > 76.9 µM"}
{"smiles": "Cn1c(N2CCOCC2)nc(-c2ccccc2)c1-c1ccccc1", "Potency": "active: 8.58 µM"}
{"smiles": "Cc1ccc(-n2c(N)c(C(=O)N3CCOCC3)sc2=S)cc1", "Potency": "inactive: > 76.9 µM"}
{"smiles": "CCOc1ccc(-c2nnc(SCC(=O)N3CCOCC3)o2)cc1", "Potency": "inactive: > 76.9 µM"}
{"smiles": "Cc1cc(C)n(CCc2nc3c4ccccc4nc(SCc4ccc(C#N)cc4)n3n2)n1", "Potency": "inactive: > 76.9 µM"}
{"smiles": "O=C(Nc1nnc(CCN2CCCCC2)s1)C1CCCCC1", "Potency": "inactive: > 76.9 µM"}
{"smiles": "Nc1nnc(SCc2ccccc2Cl)s1", "Potency": "inactive: > 76.9 µM"}
{"smiles": "CCc1ccccc1NC(=O)C(C#N)Cc1cccnc1", "note": "(centres undefined)", "Potency": "inactive: > 76.9 µM"}
{"smiles": "Cc1ccc(N2CC(C(=O)Nc3cccnc3)CC2=O)cc1", "note": "(centres undefined)", "Potency": "inactive: > 76.9 µM"}
{"smiles": "Cn1c(CCN2CCN(c3ccccc3)CC2)nc2cc(NC(=O)c3ccco3)ccc21", "Potency": "inactive: > 76.9 µM"}
{"smiles": "O=C(CN1CCc2ccccc21)NC(=O)NCc1ccco1", "Potency": "inactive: > 76.9 µM"}
{"smiles": "Cn1nnc(NC(=O)CSc2ccc(Cl)cc2)n1", "Potency": "inactive: > 76.9 µM"}
{"smiles": "CCOC(=O)c1nc(S(C)(=O)=O)ncc1N1CCOCC1", "Potency": "inactive: > 76.9 µM"}
{"smiles": "CC(C)N(C)C1CCN(C(=O)Nc2ccc(Cl)cc2)CC1", "Potency": "inactive: > 76.9 µM"}
{"smiles": "Cc1ccc(CS(=O)(=O)CCC(=O)NCC2CCCO2)cc1", "note": "(centres undefined)", "Potency": "inactive: > 76.9 µM"}
{"smiles": "CCOC(=O)Cn1cnc2c(nnn2-c2ccc(OC)cc2)c1=O", "Potency": "inactive: > 76.9 µM"}
{"smiles": "Cc1cc(C)n(-c2nc3ccccc3c(=O)n2OCC(=O)Nc2c(C)cccc2C)n1", "Potency": "inactive: > 76.9 µM"}
{"smiles": "Cc1nn(Cc2ccc(Cl)cc2)c(C)c1NC(=O)C1CC=CCC1C(=O)O", "note": "(centres undefined)", "Potency": "inactive: > 76.9 µM"}
{"smiles": "Cc1c(N=C2NC(=O)C(CC(=O)Nc3ccccc3)S2)c(=O)n(-c2ccccc2)n1C", "note": "(centres undefined)", "Potency": "inactive: > 76.9 µM"}
{"smiles": "COc1cc2c(cc1OC)C(C(=O)N1CCCCC1)C(c1ccccc1F)N(C)C2=O", "note": "(centres undefined)", "Potency": "inactive: > 76.9 µM"}
{"smiles": "COc1ccc(-c2noc(COc3ccc(C)c(C)c3)n2)cc1OC", "Potency": "inactive: > 76.9 µM"}
{"smiles": "CCOC(=O)c1[nH]c(C)c(C(=O)Nc2cccc(Cl)c2C)c1C", "Potency": "inactive: > 76.9 µM"}
{"smiles": "CC(=O)Nc1ccc(OCC(O)CN2CCN(c3cc(Cl)ccc3C)CC2)cc1", "note": "(centres undefined)", "Potency": "inactive: > 76.9 µM"}
{"smiles": "COCC(C)NC(=O)COc1ccc(Cl)cc1Cl", "note": "(centres undefined)", "Potency": "inactive: > 76.9 µM"}
{"smiles": "COc1ccc(C2CC(=O)c3cnc(NC(=O)c4ccccc4)nc3C2)c(OC)c1", "note": "(centres undefined)", "Potency": "inactive: > 76.9 µM"}
{"smiles": "Cc1cc(C)nc(Nc2n[nH]c(COc3ccc(Cl)cc3)n2)n1", "Potency": "inactive: > 76.9 µM"}
{"smiles": "Cc1cccc(NC(=O)C2CCCN(c3nc(C)cc(C)n3)C2)c1", "note": "(centres undefined)", "Potency": "inactive: > 76.9 µM"}
{"smiles": "CC1Cc2ccccc2N1C(=O)Cn1cnc2ccccc2c1=O", "note": "(centres undefined)", "Potency": "inactive: > 76.9 µM"}
{"smiles": "CC(=O)N1CCCc2cc(S(=O)(=O)Nc3ccc4c(c3)OCO4)ccc21", "Potency": "inactive: > 76.9 µM"}
{"smiles": "Cc1ccc(S(=O)(=O)NCc2ccncc2)cc1", "Potency": "inactive: > 76.9 µM"}
{"smiles": "CCOc1ccccc1-n1c(SCC(N)=O)nnc1-c1ccccc1", "Potency": "inactive: > 76.9 µM"}
{"smiles": "N#Cc1cccc(NC(=O)c2nc(-c3ccccc3)n(-c3ccccc3)n2)c1", "Potency": "inactive: > 76.9 µM"}
{"smiles": "CC1(C)CC(=O)c2cc(OCC(=O)N3CCN(c4ccccc4F)CC3)ccc2O1", "Potency": "inactive: > 76.9 µM"}
{"smiles": "CCC(=O)N1CCc2cc(Br)cc(S(=O)(=O)CCC(=O)NCC3CCCO3)c21", "note": "(centres undefined)", "Potency": "inactive: > 76.9 µM"}
{"smiles": "Cc1ccc(-c2noc(CN(C(=O)c3cccs3)C(C)C)n2)cc1", "Potency": "inactive: > 76.9 µM"}
{"smiles": "Cc1cc(NC(=O)c2ccc(S(=O)(=O)N(C)C)cc2)no1", "Potency": "inactive: > 76.9 µM"}
{"smiles": "CCOc1ccc(C(=O)Nc2ccc3c(c2)OCO3)cc1OCC", "Potency": "inactive: > 76.9 µM"}
{"smiles": "CCOC(=O)c1c(C)[nH]c(C(=O)CSc2nc3ccccc3o2)c1C", "Potency": "inactive: > 76.9 µM"}
{"smiles": "O=C(Cc1c(C(=O)O)[nH]c2ccccc12)Nc1ccc2c(c1)OCO2", "Potency": "inactive: > 76.9 µM"}
{"smiles": "CCOC(=O)C(NCCCO)c1ccccc1", "note": "(centres undefined)", "Potency": "inactive: > 76.9 µM"}
{"smiles": "CCOC(=O)C1=C(N)n2c(s/c(=C\\c3cccnc3)c2=O)=C(C(=O)OCC)C1c1cccnc1", "note": "(centres undefined)", "Potency": "inactive: > 76.9 µM"}
{"smiles": "Cn1c(CN2CCCCC2)c(C#N)c2ccccc21", "Potency": "inactive: > 76.9 µM"}
{"smiles": "CCOC(=O)c1[nH]c(C)c(C(=O)Nc2cc(Cl)ccc2C)c1C", "Potency": "inactive: > 76.9 µM"}
{"smiles": "Cc1cc(C(=O)OCC(=O)Nc2ccc(S(=O)(=O)N3CCOCC3)cc2)c(C)o1", "Potency": "inactive: > 76.9 µM"}
{"smiles": "CCC(=O)Nc1nnc(CSCc2ccccc2)s1", "Potency": "inactive: > 76.9 µM"}
{"smiles": "N#Cc1c(N2C(=O)C3C4C=CC(C4)C3C2=O)sc2c1CCC2", "note": "(centres undefined)", "Potency": "inactive: > 76.9 µM"}
{"smiles": "CCN(CC)S(=O)(=O)c1ccc(N2CCCC2)c(C(=O)OCC(=O)/C(C#N)=C(\\C)N)c1", "Potency": "inactive: > 76.9 µM"}
{"smiles": "COCCn1c(SCC(=O)c2ccc(F)cc2)nnc1C(C)C", "Potency": "inactive: > 76.9 µM"}
